Test results taken from article PMC4336329 (PLoS ONE, 2015).
Among all 310,000 compounds or so, about 2,200 (0.71%) showed an effect of 50% or more. Effects have a minus sign here. The list shows a part of the results.

These molecules were tested against human ether-à-go-go-related gene (hERG) potassium channel (human, UniProt Q12809) (assay: primary screen, population patch clamp on CHO cells stably expressing hERG).
Chain of human ether-à-go-go-related gene (hERG) potassium channel (Q12809 whole entry, looked up): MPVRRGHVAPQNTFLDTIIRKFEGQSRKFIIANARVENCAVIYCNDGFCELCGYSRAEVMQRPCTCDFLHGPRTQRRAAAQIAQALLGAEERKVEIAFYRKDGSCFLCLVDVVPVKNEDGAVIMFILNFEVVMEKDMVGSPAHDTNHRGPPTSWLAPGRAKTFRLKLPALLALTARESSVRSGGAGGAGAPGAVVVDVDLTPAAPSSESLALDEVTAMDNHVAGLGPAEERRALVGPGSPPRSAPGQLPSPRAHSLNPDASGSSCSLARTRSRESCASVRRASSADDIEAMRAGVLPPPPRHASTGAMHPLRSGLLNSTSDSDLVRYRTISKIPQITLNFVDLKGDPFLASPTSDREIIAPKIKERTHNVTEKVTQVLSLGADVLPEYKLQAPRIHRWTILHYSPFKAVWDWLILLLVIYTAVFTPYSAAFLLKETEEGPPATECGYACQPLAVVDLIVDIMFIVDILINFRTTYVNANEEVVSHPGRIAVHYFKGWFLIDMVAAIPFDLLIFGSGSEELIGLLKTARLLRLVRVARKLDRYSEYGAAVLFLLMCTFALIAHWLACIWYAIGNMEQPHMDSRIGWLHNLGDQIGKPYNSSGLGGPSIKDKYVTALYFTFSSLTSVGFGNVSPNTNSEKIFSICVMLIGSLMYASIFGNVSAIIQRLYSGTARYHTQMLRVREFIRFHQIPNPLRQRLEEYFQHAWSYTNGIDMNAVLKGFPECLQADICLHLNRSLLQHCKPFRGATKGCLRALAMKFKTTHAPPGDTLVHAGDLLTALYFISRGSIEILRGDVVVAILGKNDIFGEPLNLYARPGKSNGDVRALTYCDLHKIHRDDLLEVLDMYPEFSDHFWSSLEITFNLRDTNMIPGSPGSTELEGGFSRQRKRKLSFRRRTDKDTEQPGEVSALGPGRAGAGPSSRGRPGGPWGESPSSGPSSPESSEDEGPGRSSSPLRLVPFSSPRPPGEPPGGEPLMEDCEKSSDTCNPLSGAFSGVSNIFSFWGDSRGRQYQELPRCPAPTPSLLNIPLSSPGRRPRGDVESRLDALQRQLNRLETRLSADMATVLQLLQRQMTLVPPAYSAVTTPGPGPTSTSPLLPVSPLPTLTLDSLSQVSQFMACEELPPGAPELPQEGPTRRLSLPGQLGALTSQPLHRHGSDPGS

SMILES | hERG current change (%, negative = inhibition) at 1uM [%]
O=C(COC(=O)CC1CCCCC1)Nc1c(Cl)cccc1Cl | 10.5
N=C1C(=O)OCC1c1ccccc1NC(=O)CN1CCCCC1 (stereo not shown) | 7.78
CC1CCN(S(=O)(=O)N2CCC(C(=O)NCc3cccs3)CC2)CC1 | 2.94
CCOC(=O)c1sc(=S)n(C)c1NC(=O)c1cccc(Br)c1 | 12.9
C(=N\Nc1cc(N2CCCCC2)ncn1)/c1ccco1 | 14.1
COc1ccc(S(=O)(=O)N2CCCC(C(F)(F)F)C2)cc1 (stereo not shown) | 14.4
C[C@H](O)[C@@H](C(=O)N1CCN(C(=O)OC(C)(C)C)CC1)n1cc(CCCCNC(=O)OC(C)(C)C)nn1 | -12.4
Cc1ccc(NC(=O)OCCN2CCN(S(=O)(=O)c3ccc(C)cc3)CCC2=O)cc1 | -0.393
O=C(CS(=O)c1ccc(Br)cc1)N1CCOCC1 (stereo not shown) | 4.17
Cc1ccc(/C=N\NC(=O)C2CC(=O)N(c3ccccc3)C2)o1 (stereo not shown) | 10.1
CCN(CC)S(=O)(=O)c1ccc(N=Cc2c(O)n(-c3ccccc3)c(=O)[nH]c2=O)cc1 | 1.64
Cc1ccc(C)c(CSCC(=O)NCc2cccs2)c1 | -0.287
CCOc1ccc(C(=O)Nc2nnc(C)s2)cc1OCC | -1.61
CCN(CC)S(=O)(=O)c1ccc(C)c(NC(=O)CN(C)C)c1 | 11.5
O=C(O)c1c2c(nc3ccccc13)/C(=C/c1ccc(OC(F)F)cc1)CCC2 | 19.4
O=C(NCc1n[nH]c(=S)n1-c1ccccc1)c1ccco1 | 14.1
COc1cc(C2C(C(C)=O)=C(O)C(=O)N2CCc2ccc(OC)c(OC)c2)ccc1O (stereo not shown) | 18.6
Brc1ccc(OCCOCCN2CCOCC2)cc1 | 9.5
CC(C)(c1cc(Br)c(O)c(Br)c1)c1cc(Br)c(O)c(Br)c1 | 6.66
CC(=O)NC(=O)NC1OC(=O)C(Cl)=C1Cl (stereo not shown) | 12.4
COc1ccc(C2CC(c3ccccc3)=NN2c2ccccc2)c(C(=O)O)c1OC (stereo not shown) | 0.749
COc1cc(OC)cc(-c2n[nH]c(=S)n2-c2ccc3c(c2)OCCO3)c1 | 14.5
COc1ccc(C(C(=O)NC2CCCC2)N(Cc2ccco2)C(=O)c2snc(C(N)=O)c2N)cc1OC (stereo not shown) | 27

SMILES | hERG current change (%, negative = inhibition) at 1uM [%]
Cc1nc(CN(C)C(=O)c2ccccc2OC2CCN(S(C)(=O)=O)CC2)cs1 | 11.1
Cc1cc(C)n2nc(C(=O)Nc3nccs3)nc2n1 | -0.338
COc1ccc(C(=O)NCCCOc2cccnc2)cc1OC1CCN(C(C)=O)CC1 | 9.64
O=[N+]([O-])c1ccc(C(=S)N2CCC(Cc3ccccc3)CC2)cc1 | 1.35
CCN(CC)S(=O)(=O)c1ccc(C(=O)OCC(=O)Nc2sc3c(c2C#N)CCCCC3)cc1 | -0.19
O=C(c1ccco1)N1CCN(C(=O)C2CCN(S(=O)(=O)c3cccs3)CC2)CC1 | -26.1
Cc1ccc(Cn2ccnc2C(=O)Nc2ccccc2)cc1 | 9.01
COCCNC(=O)C1CCN(Cc2cccc(OCc3ccccc3)c2)CC1 | 1.86
N#C/C(=C\c1ccc(C(=O)O)cc1)c1ccccn1 | 17.3
Cc1ccc(CNC(=O)c2cccc3c2C(=O)c2ccc(N4CCCCC4)cc2S3(=O)=O)cc1 | 6.41
CCC(C)(C(=O)Nc1ccc(OC)cc1)N(C)C(=O)Cn1nnnc1N (stereo not shown) | 18
COc1ccc(NC(=O)COC(=O)C23CCC(=O)N2c2ccccc2S3)cc1 (stereo not shown) | 12.9
Cc1ccc(CNS(=O)(=O)c2ccc3c(c2)n(C)c(=O)c(=O)n3C)cc1 | 3.93
Brc1cccc(-c2nnc3sc(CNC4CCCC4)cn23)c1 | 6.04
CCN(CC)C(=O)N1c2ccccc2C=Cc2ccccc21 | 4.41
Cn1ncc2c(N3CCC(Cc4ccccc4)CC3)ncnc21 | -1.15
COc1cc(NC(c2ccccc2)c2ccccc2)cc(OC)c1OC | 5.7
Cc1cc(Br)cc(Cl)c1OC(=O)c1ccncc1 | 12.6
COCCCNC(=O)c1sc2ncnc(N3CCc4ccccc4C3)c2c1C | -14.2
Cc1noc(C)c1COc1ccc(C(=O)OCC(=O)Nc2c(C)n(C)n(-c3ccccc3)c2=O)cc1 | 13.9
CC(C)OCC(O)CS(=O)Cc1ccccc1 (stereo not shown) | 8.83
Cc1ccc(-n2nc3ccc(NC(=O)/C=C/c4ccco4)cc3n2)cc1 | 6.25
CCOC(=O)CSc1nc(N)c(C#N)c(-c2ccc(OCC)cc2)c1C#N | 14.6

SMILES | hERG current change (%, negative = inhibition) at 1uM [%]
Cn1c(SCC(=O)NNC(=O)Cc2ccccc2)nnc1-c1ccccc1 | 10.1
CC(C)(C)n1nc2c(c1NC(=O)COc1ccccc1F)CS(=O)(=O)C2 | 3.22
Cc1[nH]n(-c2ccccc2)c(=O)c1N=Nc1ccc(C(N)=O)cc1 | 19.8
COc1cccc(NC(=O)C2CCCN2C(=O)Nc2ccccc2F)c1 (stereo not shown) | 0.224
CC(=O)Nc1ccc(N2C(=O)CSC2c2ccccc2)cc1 (stereo not shown) | 11.1
COC(=O)c1ccccc1NC(=O)c1ccc(NC(=O)C2CCCO2)cc1 (stereo not shown) | -0.206
Cc1cccc(N=Nc2cnc(N)s2)c1 | 6.35
CCCc1ccc(-c2cc(C(=O)NC3=NCCS3)c3ccccc3n2)cc1 | 1.42
COc1cc2c(c(O)c1OC)C(=O)C(OC)CCC2 (stereo not shown) | 0.157
CC(=O)c1c(C)[nH]c(C(=O)COC(=O)COc2ccccc2F)c1C | -0.562
Cc1nn(C2CCS(=O)(=O)C2)c(Cl)c1/C=C/C(=O)OCC(=O)N(C)C (stereo not shown) | 9.75
O=C(CCN1C(=O)C2C3C=CC(C3)C2C1=O)NC1CCCc2ccccc21 (stereo not shown) | 8.1
CC(C)C[C@@H](CO)N1CCN(Cc2cccnc2)CCC1=O | 6.9
COc1ccc(OC(C)C(=O)Nc2ccccc2F)cc1 (stereo not shown) | 12.5
CCc1c(C(=O)NN2C(=O)C3CCCCC3C2=O)csc1C (stereo not shown) | 15.2
Cc1coc2cc3oc(=O)c4c(c3cc12)CCC4 | 13.7
Cl.O=C(CNCC(=O)Nc1ccc(F)c(F)c1F)Nc1ccc(F)c(F)c1F | 5.75
Cc1ccc(S(=O)(=O)N2CCC(=O)N(C(COCc3ccccc3)Cc3ccccc3)CC2)cc1 (stereo not shown) | 17.5
COc1ccccc1N1CCN(C(=O)CN(Cc2ccc(Cl)cc2)S(C)(=O)=O)CC1 | 10.7
O=C1C=C(NC2=CC3OC(c4ccccc4)OCC3OC2=O)CCC1 (stereo not shown) | 11.2
O=C(Nc1ccccc1)Nc1nnc(Cc2ccc(F)cc2)s1 | 13.8
CCc1ccc(OC)c(-c2csc(N)n2)c1 | 7.14
COc1ccc(-c2[nH]ncc2CN2CCC(OCc3cccnc3)CC2)c(F)c1 | -10.6

SMILES | hERG current change (%, negative = inhibition) at 1uM [%]
CCc1ccccc1-n1nnnc1-c1cnccc1C(F)(F)F | 3.85
COc1ccc(/C=C/c2cc(C(=O)O)c3ccccc3n2)cc1 | 11.9
CN(C)c1ccc(/C=N/N(CCO)C2=NS(=O)(=O)c3ccccc32)cc1 | 20.8
O=C(Nc1ccccc1)c1ccsc1 | 7.56
CCOc1ccccc1N=Nc1c(C)[nH]n(-c2ccccc2)c1=O | 12.3
CC(C)N(C(=O)Cn1c(SCC(=O)NC2CC2)nc2ccccc21)C(C)C | 4.23
O=C(O)[C@H](Cc1ccccc1)N1Cc2ccccc2C1=O | 0.491
O=C(O)c1ccc(Cl)c(S(=O)(=O)Nc2ccc(OCc3ccccc3)cc2)c1 | 13.7
c1ccc(-n2nc3c(ccc4cnnc43)[nH]2)cc1 | 5.82
Cc1cccc(N2CCN(CC(=O)N(C)Cc3ccccc3)CC2C)c1 (stereo not shown) | 3.42
CCOC(=O)c1ccc(NNC(C)=O)c([N+](=O)[O-])c1 | 5.93
O=C(N/N=C/c1c[nH]c2ccccc12)C1CC1c1ccccc1 (stereo not shown) | 0.812
O=C(COc1ncnc2ccccc12)NC(=O)NCc1ccccc1 | 6.9
O=C(O)c1ccc(N2C(=O)CSC2=S)cc1 | 2.13
COCC(C)n1c(C)cc(C(=O)CSc2nc(C)c(C)c(C)n2)c1C (stereo not shown) | 4.28
CC(C)(C)c1ccccc1NC(=O)CN1C(=O)NC2(CCCCCC2)C1=O | 6.91
O=S(=O)(c1ccccc1)N(CC1CO1)c1cc(Cl)ccc1Cl (stereo not shown) | 12.1
Cc1ccc(-c2noc(CCC(=O)NCc3ccco3)n2)cc1 | 5.54
COc1ccc(NC(=O)COC(=O)c2cc3c(s2)CCC3)cc1 | -9.61
O=C(CSc1nc2ccccc2n1Cc1ccc(Cl)cc1)N/N=C/c1ccccc1C(=O)O | 9.65
O=C(NC1CC2CCCC(C1)N2C(=S)Nc1ccc(Cl)cc1)C1CC1 (stereo not shown) | 4.82
CSc1ccccc1NC(=O)C(C)N1C(=O)c2ccccc2S1(=O)=O (stereo not shown) | 8.25
